# PubChem BioAssay (Tox21)
# Where “and” joins values, the source holds several entries; their conditions need not be identical. Equal values may be shown once. The inconclusive results got no clear call from the source; some entries with a clear call stand among them for comparison. For part of these data: Potencies beside an inconclusive call are fits to weak or partial responses and may not hold up. Calls of active or inactive are those of the source. Unless noted, calls follow the shape of the dose curve; as a rule, active = well fitted curve in the direction sought with a large enough effect in the repeat runs; inconclusive = weak or mixed curves; inactive = no such curve, though single readings can be large; an effect the other way counts as inactive or inconclusive.
# What was measured:
# [1] = biological target: Peroxisome proliferator-activated receptor gamma (Homo sapiens) (UniProt P37231); test: qHTS assay to identify small molecule antagonists of the peroxisome proliferator-activated receptor gamma (PPARg) signaling pathway (AID 743191; calls by dose curve; also: nearly all actives have a fitted effect of over 30% in size; also: potency is read from the fitted curve at half-maximal effect); conditions: HEK293H PPARg-UAS-bla, beta-lactamase ratio, antagonist, 17 h; ratio activity, negative = inhibition: at 62.6 µM (top of the series) unless noted
# Outline: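 Beta-lactamase reporter under UAS control in HEK293H PPARg-bla cells; compound treatment 17 h at 37C. Read-out: fluorescence intensity after 1 h room-temperature incubation with LiveBLAzer B/G FRET substrate.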
# [2] = qHTS assay for small molecule activators of the heat shock response signaling pathway (AID 743210; active = well fitted activation curve with a large enough effect in the signal ratio in the repeat runs, with a control signal flat, not every such curve was filed as active; inconclusive = weak or mixed curves; the % refers to the signal ratio; also: potency is read from the fitted curve at half-maximal effect); conditions: HeLa HSE-bla reporter, beta-lactamase ratio, 5 h; activation: at 62.6 µM (top of the series)
# Outline: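 Fluorescence from a cleaved B/G FRET substrate (2.5 h, room temp) reports HSE-driven beta-lactamase in HeLa cells treated 5 h at 37 C with DMSO-dissolved compounds.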
# [3] = biological target: Bile acid receptor (Homo sapiens) (UniProt Q96RI1); test: qHTS assay to identify small molecule agonists of the farnesoid-X-receptor (FXR) signaling pathway (AID 743220; active = well fitted activation curve with a large enough effect in the signal ratio in the repeat runs, not every such curve was filed as active; inconclusive = weak or mixed curves, or effect the other way; the % refers to the signal ratio; also: % is scaled to controls: 0 for no effect and ±100 for the full control effect); conditions: HEK293T FXR-UAS-bla, beta-lactamase FRET ratio, 16 h; activation: at 62.6 µM (top of the series) unless noted
# Outline: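 FXR-UAS-bla HEK 293T cells carrying a UAS-driven beta-lactamase reporter were plated for 5 h at 37C/5% CO2, then exposed to DMSO-dissolved Tox21 10K compounds for 16 h at 37C. A LiveBLAzer B/G FRET substrate was loaded for 2 h at room temperature before fluorescence reading.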
# [4] = biological target: Vitamin D3 receptor (Homo sapiens) (UniProt P11473); test: qHTS assay to identify small molecule agonists of the vitamin D receptor (VDR) signaling pathway (AID 743222; calls by dose curve; also: % is scaled to controls: 0 for no effect and ±100 for the full control effect); conditions: HEK293T VDR-UAS-bla, beta-lactamase FRET ratio, 16 h; activation: at 63.5 µM (top of the series) unless noted
# Outline: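 Following 4 h attachment at 37C, VDR-bla cells (2,000 per well) received DMSO-dissolved compounds or controls. After 16 h incubation, LiveBLAzer B/G FRET substrate was added and fluorescence read 2 h later at room temperature.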
# [5] = qHTS assay to identify small molecule antagonists of the vitamin D receptor (VDR) signaling pathway - cell viability counter screen (AID 743225); conditions: VDR-bla HEK293T viability, CellTiter-Glo luminescence, 16 h; viability change, negative = cytotoxic: at 61 µM (top of the series) unless noted; also: potency is read from the fitted curve at half-maximal effect; nearly all actives have a fitted effect of over 50% in size
# Outline: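 VDR-bla HEK 293T cells, 4 h pre-incubation at 37C, then compound plus 1-alpha,25-dihydroxyvitamin D3 (3 nM final) for 16 h. After the beta-lactamase FRET read, CellTiter-Glo was added to the same wells; luminescence after 30 min at room temperature.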
# [6] = qHTS assay to identify small molecule antagonists of the peroxisome proliferator-activated receptor delta (PPARd) signaling pathway - cell viability counter screen (AID 743213); conditions: PPARd-bla HEK293H viability, CellTiter-Glo luminescence, 17 h; viability change, negative = cytotoxic: at 62 µM (top of the series) unless noted; also: % is scaled to controls: 0 for no effect and ±100 for the full control effect; nearly all actives have a fitted effect of over 50% in size
# Outline: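 Agonist-stimulated (L165041, 300 nM final) HEK293H PPARd UAS-bla cells are exposed to compounds for 17 h at 37 C, and ATP-based luminescence (CellTiter-Glo) from the same wells reports cytotoxicity.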
# [7] = biological target: Vitamin D3 receptor (Homo sapiens) (UniProt P11473); test: qHTS assay to identify small molecule antagonists of the vitamin D receptor (VDR) signaling pathway (AID 743223; active = well fitted inhibition curve with a large enough effect in the signal ratio in the repeat runs, not every such curve was filed as active; inconclusive = weak or mixed curves, or effect the other way; inactive = no such curve, though single readings can be large or run the other way; the % refers to the signal ratio; also: % is scaled to controls: 0 for no effect and ±100 for the full control effect); conditions: VDR-UAS-bla HEK293T, beta-lactamase FRET ratio, 16 h; activity change, negative = inhibition: at 61 µM (top of the series) unless noted
# Outline: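 VDR-bla cells were plated, incubated 4 h at 37C, then given compound and 1alpha,25-dihydroxyvitamin D3 (3 nM final). After 16 h at 37C, LiveBLAzer B/G FRET substrate was added for 2 h at room temperature and fluorescence read.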
# [8] = qHTS assay to identify small molecule agonists of the farnesoid-X-receptor (FXR) signaling pathway - cell viability counter screen (AID 743218); conditions: FXR-bla HEK293T viability, CellTiter-Glo luminescence, 16 h; viability change, negative = cytotoxic: at 62.6 µM (top of the series) unless noted; also: nearly all actives have a fitted effect of over 45% in size; also: potency is read from the fitted curve at half-maximal effect
# Outline: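 Readout: CellTiter-Glo luminescence, 30 min RT, multiplexed after the FXR-bla FRET reading. HEK 293T FXR-UAS-bla cells received compound 5 h post-plating and were incubated 16 h at 37 C.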
# [9] = qHTS assay to identify small molecule antagonists of the peroxisome proliferator-activated receptor gamma (PPARg) signaling pathway - cell viability counter screen (AID 743194); conditions: PPARg-bla HEK293H viability, CellTiter-Glo luminescence, 17 h; Potency: co-treated with 50 nM rosiglitazone unless noted; activity change, negative = cytotoxicity: at 62.6 µM (top of the series), co-treated with 50 nM rosiglitazone unless noted; also: nearly all actives have a fitted effect of over 55% in size; also: potency is read from the fitted curve at half-maximal effect
# Outline: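 Viability was measured as CellTiter-Glo luminescence in GeneBLAzer PPARg UAS-bla HEK293H cells. These cells had been exposed 17 h at 37 C to compounds together with rosiglitazone at 50 nM final, with the beta-lactamase readout taken in the same wells.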
# [10] = biological target: Peroxisome proliferator-activated receptor delta (Homo sapiens) (UniProt Q03181); test: qHTS assay to identify small molecule agonists of the peroxisome proliferator-activated receptor delta (PPARd) signaling pathway (AID 743212; calls by dose curve; also: % is scaled to controls: 0 for no effect and ±100 for the full control effect); conditions: HEK293H PPARd-UAS-bla, beta-lactamase FRET ratio, 17 h; activation: at 62.6 µM (top of the series) unless noted
# Outline: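 Steps: seed PPARd-bla HEK293H cells; incubate 5 h, 37 C, 5% CO2; add compounds in DMSO; incubate, 37 C; add LiveBLAzer B/G FRET substrate; hold 2 h at room temperature; measure fluorescence.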
# [11] = qHTS assay to identify small molecule agonists of the vitamin D receptor (VDR) signaling pathway - cell viability counter screen (AID 743224); also: potency is read from the fitted curve at half-maximal effect; nearly all actives have a fitted effect of over 50% in size
# Outline: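 In parallel with the bla FRET readout, cytotoxicity toward VDR-bla cells after 16 h compound exposure was assessed by CellTiter-Glo, with luminescence recorded after a 30 min room-temperature incubation.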
# [12] = qHTS assay for small molecule agonists of the antioxidant response element (ARE) signaling pathway (AID 743202; active = well fitted activation curve with a large enough effect in the signal ratio in the repeat runs, not every such curve was filed as active; inconclusive = weak or mixed curves, or effect the other way; inactive = no such curve, though single readings can be large or run the other way; the % refers to the signal ratio; also: % is scaled to controls: 0 for no effect and ±100 for the full control effect); conditions: HepG2 ARE-bla reporter, beta-lactamase FRET, 16 h
# Outline: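 Beta-lactamase reporter activity, read as fluorescence intensity, reflects ARE/Nrf2 pathway induction in HepG2 cells after 16 h compound exposure at 37 C; substrate loading was 2 h at room temperature.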
# [13] = qHTS assay to identify small molecule agonists of the peroxisome proliferator-activated receptor delta (PPARd) signaling pathway - cell viability counter screen (AID 743211); conditions: PPARd-bla HEK293H viability, CellTiter-Glo luminescence, 17 h; activity change, negative = cytotoxicity: at 62.6 µM (top of the series) unless noted; also: potency is read from the fitted curve at half-maximal effect; nearly all actives have a fitted effect of over 55% in size
# Outline: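 PPARd-bla HEK293H cells (UAS-beta-lactamase reporter) were treated with compounds for 17 h at 37 C. Viability was then read in the same wells by CellTiter-Glo luminescence after 30 min at room temperature.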
# [14] = biological target: Peroxisome proliferator-activated receptor delta (Homo sapiens) (UniProt Q03181); test: qHTS assay to identify small molecule antagonists of the peroxisome proliferator-activated receptor delta (PPARd) signaling pathway (AID 743215; active = well fitted inhibition curve with a large enough effect in the signal ratio in the repeat runs, not every such curve was filed as active; inconclusive = weak or mixed curves, or effect the other way; inactive = no such curve, though single readings can be large or run the other way; the % refers to the signal ratio; also: % is scaled to controls: 0 for no effect and ±100 for the full control effect); conditions: HEK293H PPARd-UAS-bla, beta-lactamase FRET ratio, antagonist, 17 h; ratio activity, negative = inhibition: at 62 µM (top of the series) unless noted
# Outline: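 Fluorescence from cleaved LiveBLAzer B/G FRET substrate (2 h, room temperature) reports PPARd-driven beta-lactamase in HEK293H UAS-bla cells. Cells had been treated 17 h at 37 C with compound plus 300 nM final L165041.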
# [15] = biological target: Bile acid receptor (Homo sapiens) (UniProt Q96RI1); test: qHTS assay to identify small molecule antagonists of the farnesoid-X-receptor (FXR) signaling pathway (AID 743217; active = well fitted inhibition curve with a large enough effect in the signal ratio in the repeat runs, not every such curve was filed as active; inconclusive = weak or mixed curves, or effect the other way; inactive = no such curve, though single readings can be large or run the other way; the % refers to the signal ratio; also: % is scaled to controls: 0 for no effect and ±100 for the full control effect); conditions: HEK293T FXR-UAS-bla, beta-lactamase ratio, CDCA-stimulated, 16 h; activity change, negative = inhibition: at 62.6 µM (top of the series) unless noted
# Outline: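 FRET fluorescence after 2 h room-temperature LiveBLAzer loading gives the readout. Prior step: FXR-bla HEK 293T cells, seeded and incubated 5 h, received test compounds plus 50 uM final CDCA for 16 h at 37 °C.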
# Tags tell the direction and shape of the fitted curve or compound fluorescence and quenching.
# Sequence of UniProt Q96RI1 (Q96RI1 whole entry, looked up): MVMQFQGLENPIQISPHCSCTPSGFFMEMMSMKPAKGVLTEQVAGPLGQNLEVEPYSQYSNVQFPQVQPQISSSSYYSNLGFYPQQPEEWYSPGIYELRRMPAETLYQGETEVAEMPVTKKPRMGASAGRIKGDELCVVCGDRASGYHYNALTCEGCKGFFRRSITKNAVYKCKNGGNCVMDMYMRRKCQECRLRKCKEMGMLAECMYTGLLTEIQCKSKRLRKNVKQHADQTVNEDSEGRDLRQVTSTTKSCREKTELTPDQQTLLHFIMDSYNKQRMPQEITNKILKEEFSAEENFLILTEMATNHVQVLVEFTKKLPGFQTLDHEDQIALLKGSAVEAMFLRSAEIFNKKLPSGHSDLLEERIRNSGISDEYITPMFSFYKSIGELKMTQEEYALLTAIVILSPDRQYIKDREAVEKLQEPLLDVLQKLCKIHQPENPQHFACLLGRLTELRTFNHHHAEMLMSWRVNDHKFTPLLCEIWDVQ
# Sequence of UniProt P37231 (P37231 whole entry, looked up): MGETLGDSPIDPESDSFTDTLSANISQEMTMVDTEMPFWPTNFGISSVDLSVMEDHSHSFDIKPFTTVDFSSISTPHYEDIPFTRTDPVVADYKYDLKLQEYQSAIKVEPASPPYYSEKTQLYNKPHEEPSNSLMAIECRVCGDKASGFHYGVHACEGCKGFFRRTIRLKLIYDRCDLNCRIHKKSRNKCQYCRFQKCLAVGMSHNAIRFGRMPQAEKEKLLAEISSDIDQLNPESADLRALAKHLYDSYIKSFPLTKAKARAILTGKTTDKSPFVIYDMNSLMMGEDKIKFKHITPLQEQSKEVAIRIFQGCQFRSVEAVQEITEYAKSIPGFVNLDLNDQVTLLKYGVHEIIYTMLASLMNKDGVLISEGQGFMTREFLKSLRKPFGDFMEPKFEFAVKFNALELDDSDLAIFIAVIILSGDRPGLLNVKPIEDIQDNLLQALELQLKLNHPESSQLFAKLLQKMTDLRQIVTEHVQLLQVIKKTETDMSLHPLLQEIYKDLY
# Sequence of UniProt P11473 (P11473 whole entry, looked up): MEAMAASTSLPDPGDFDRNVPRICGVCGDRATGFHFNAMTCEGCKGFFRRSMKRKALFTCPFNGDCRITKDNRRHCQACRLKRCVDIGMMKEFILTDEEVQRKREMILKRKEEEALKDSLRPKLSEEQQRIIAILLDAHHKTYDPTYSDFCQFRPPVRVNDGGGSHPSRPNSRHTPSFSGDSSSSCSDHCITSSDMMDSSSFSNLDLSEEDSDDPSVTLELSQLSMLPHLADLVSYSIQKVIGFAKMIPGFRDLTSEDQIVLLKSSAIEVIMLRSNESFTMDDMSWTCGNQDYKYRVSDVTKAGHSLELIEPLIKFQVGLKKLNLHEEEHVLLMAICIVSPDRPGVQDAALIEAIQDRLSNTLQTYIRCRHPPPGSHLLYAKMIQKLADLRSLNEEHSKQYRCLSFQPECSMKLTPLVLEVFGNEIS
# Sequence of UniProt Q03181 (Q03181 whole entry, looked up): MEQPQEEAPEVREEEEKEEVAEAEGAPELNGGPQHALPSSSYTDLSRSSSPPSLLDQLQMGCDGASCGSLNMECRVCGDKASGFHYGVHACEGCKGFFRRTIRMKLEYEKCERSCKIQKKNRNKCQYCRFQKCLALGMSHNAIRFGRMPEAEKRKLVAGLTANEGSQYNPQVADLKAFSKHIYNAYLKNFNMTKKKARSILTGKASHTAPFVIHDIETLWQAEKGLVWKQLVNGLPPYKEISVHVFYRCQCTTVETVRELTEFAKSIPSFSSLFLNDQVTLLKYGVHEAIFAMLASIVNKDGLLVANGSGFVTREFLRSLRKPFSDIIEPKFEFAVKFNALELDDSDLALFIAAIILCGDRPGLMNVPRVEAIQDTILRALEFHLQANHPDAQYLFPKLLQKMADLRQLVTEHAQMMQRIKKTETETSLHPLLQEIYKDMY
smiles,measurement,setting,value
CCCCCCCCCl,Potency,[1],inactive
same,Potency,[2],inconclusive: 57.1 µM [activator]
same,Potency,[3],inactive
same,activation,[4],inconclusive: -0.717% [at 81.1 µM]
same,Potency,[5],"inconclusive: 0.692 µM [rising, full curve, poor fit]"
C=C(C)C(=O)OCCCCOC(=O)C(=C)C,"ratio activity, negative = inhibition",[1],inconclusive: -1.3%
same,Potency,[6],inactive
same,"activity change, negative = inhibition",[7],inconclusive: 24.8%
Cc1cc(=O)[nH]o1,"ratio activity, negative = inhibition",[1],inconclusive: 21.7% [at 81.1 µM]
same,Potency,[8],"inconclusive: 0.0477 µM [rising, full curve, poor fit]"
O=C(O)c1ccccn1,Potency,[9],inactive
CCC1(c2ccc(N)cc2)CCC(=O)NC1=O (stereo unspecified),Potency,[9],"inconclusive: 21.9 µM [cytotoxic, single point] [setting not given]"
Cc1cc(Cl)ccc1N=CN(C)C,"ratio activity, negative = inhibition",[1],inconclusive: -2.77% and inconclusive: -2.15%
same,Potency,[10],inactive
CCOP(=S)(OCC)SCn1c(=O)oc2cc(Cl)ccc21,Potency,[1],"inactive and inconclusive: 43.6 µM [inhibitor, partial curve]"
same,Potency,[2],inactive and inconclusive: 49 µM
same,activation,[3],inconclusive: 4.7%
same,"activity change, negative = inhibition",[7],inconclusive: -7.42%
same,Potency,[11],"inconclusive: 54.9 µM [cytotoxic, single point]"
O=[N+]([O-])c1ccccc1O,"ratio activity, negative = inhibition",[1],inconclusive: -6.75%
same,Potency,[6],inactive
same,Potency,[8],inactive
O=[N+]([O-])/N=C1\NCCN1Cc1ccc(Cl)nc1,Potency,[1],inactive
same,Potency,[5],"inconclusive: 10.7 µM [rising, full curve]"
CC(C)CCCCCCOC(=O)c1ccccc1C(=O)OCCCCCCC(C)C,Potency,[9],"inconclusive: 2.46 µM [rising, full curve, poor fit]"
same,activation,[12]; activation: at 73.3 µM (top of the series) unless noted,inconclusive: -1.61%
same,activation,[12]; at 73.3 µM (top of the series),inactive: -1.57% and inactive: -11.7%
same,Potency,[13],"inconclusive: 11 µM [cytotoxic, partial curve] and inconclusive: 15.5 µM [cytotoxic, partial curve]"
same,Potency,[14],inactive
same,"activity change, negative = inhibition",[15],inconclusive: -6.52%
same,Potency,[8],inactive
same,Potency,[3],inactive
same,Potency,[7],inactive
same,Potency,[5],"inconclusive: 6.92 µM [cytotoxic, partial curve, poor fit]"
CCC(C(N)=O)N1CCCC1=O (stereo unspecified),"ratio activity, negative = inhibition",[1],inconclusive: 0.108%
same,Potency,[3],inactive
